# From PubChem BioAssay AID624418 (National Center for Advancing Translational Sciences (NCATS), 2012)
# The campaign covered roughly 410,000 compounds. About 530 (0.13%) were called active. Inconclusive means that the source gave no clear call. Such entries were picked first, then a sample of the others. Calls follow the shape of the dose curve; as a rule, active = well fitted inhibition curve with a large enough effect; inconclusive = small, poorly fitted or top-dose-only effect, or another doubt; inactive = no such curve, though single readings can be large or run the other way. A potency beside an inconclusive call is a rough fit, not a confirmed value.
# Experiment: qHTS of GLP-1 Receptor Inverse Agonists: Cytotox Screen
# Conditions: HEK293 cAMP-luciferase reporter cells, luminescence, 24 h; series mostly up to 38.3 µM
# Summary of the method: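 MLSMR compounds, 24 hr on cells at 37 deg C/5% CO2; luminescence after luciferase reagent (12 min RT). Inhibition counted as the undesired cytotoxic outcome.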
# Potency is read from the fitted curve at half-maximal effect.
row,SMILES,Potency
1,COc1cc(NC(=O)c2cccc(Br)c2)nc(OC)n1,inactive
2,COc1cc(CN(C)CC2CCCN(CCc3cccc(C(F)(F)F)c3)C2)ccc1O (centres undefined),"inconclusive: 20 µM [inhibitor, single point]"
3,COc1cccc(OC)c1OCC(C)CNCC1CCCO1 (centres undefined),"inconclusive: 14.1 µM [inhibitor, single point]"
4,COc1ccc(C(=O)NC(=S)N2CC(C)OC(C)C2)cc1 (centres undefined),"inconclusive: 28.2 µM [inhibitor, single point]"
5,Cc1cccc(Cn2c(C(C)(C)C)cc3cccnc32)c1,"inconclusive: 11.2 µM [inhibitor, single point]"
6,CC(=O)c1cccc(NC(=O)COC(=O)COc2c(Cl)cc(Cl)c3ccc(C)nc23)c1,"inconclusive: 31.6 µM [inhibitor, single point]"
7,COc1ccc(OC)c(CN2CCCCCC2)c1,inactive
8,CC(/C=C(\NC(=O)c1ccccc1)C(=O)N=Nc1c(O)[nH]c2ccc(C)cc12)=C\c1ccccc1,"inconclusive: 6.31 µM [inhibitor, partial curve]"
9,COc1ccc(OCC(=O)OC2CCN(C)CC2)cc1,inactive
10,O=C(CCl)Nc1cccc(-c2cnc3ccccc3n2)c1,"inconclusive: 2.24 µM [inhibitor, partial curve, poor fit]"
11,Cc1cccc(C)c1NS(=O)(=O)c1ccc(NC(=O)c2ccc(Cl)c([N+](=O)[O-])c2)cc1,"inconclusive: 28.2 µM [inhibitor, single point]"
12,Cc1cccc(NC(=S)NCCc2ccc(F)cc2)c1C,"inconclusive: 2.82 µM [inhibitor, partial curve, poor fit]"
13,CCN1CCN(c2cc(N3CCc4ccccc4C3)c(F)cc2[N+](=O)[O-])CC1,"inconclusive: 22.4 µM [inhibitor, single point]"
14,COc1cccc(C(CC(=O)Nc2cccc3ccccc23)NC(=O)c2ccccc2)c1 (centres undefined),"inconclusive: 31.6 µM [inhibitor, single point]"
15,O=C(CSc1nc(-c2ccco2)cc(C(F)(F)F)n1)NC1CCCCCCC1,"inconclusive: 10 µM [inhibitor, partial curve, poor fit]"
16,COC(=O)c1c(C)oc2ccc(N(C(=O)c3ccncc3)S(=O)(=O)c3ccccc3)cc12,"inconclusive: 31.6 µM [inhibitor, single point]"
17,Cc1ccc(C)c(-c2[nH]ncc2CN2CCCC(CO)(Cc3ccccc3C)C2)c1 (centres undefined),"inconclusive: 20 µM [inhibitor, single point]"
18,CCOc1ccc(-c2nc(-c3ccc(OC)cc3)no2)cc1OCC,inactive
19,CCc1ccc(CNC(=O)C2CCCN(c3nc4ccccc4o3)C2)cc1 (centres undefined),"inconclusive: 4.47 µM [inhibitor, full curve, poor fit]"
20,CCCCOc1ccc(C(=O)NCCS(=O)(=O)N2CCN(c3ccc(F)cc3)CC2)cc1,inactive
21,CN(CC(=O)Nc1ccccc1Cl)C(=O)C1CCN(S(=O)(=O)c2ccc3c(c2)OCCO3)CC1,inactive
22,COc1cc(OC)cc(-c2c(-c3ccc(F)cc3)c3cc(-c4ccc(SC)cc4)ccc3n2C)c1,"inconclusive: 28.2 µM [inhibitor, single point]"
23,O=C(NNc1ccc([N+](=O)[O-])cc1)c1ccccc1F,"inconclusive: 28.2 µM [inhibitor, single point]"

row,SMILES,Potency
1,CCCc1cc(-c2n[nH]c(=S)n2-c2cccc(C)c2)cs1,inactive
2,N#Cc1c2n(c3c(-c4ccccc4)ncnc13)CCC2,inactive
3,CC[C@]12C(=O)N(C)C[C@H]([C@@H]3C(=O)N(Cc4ccccc4)C(=O)[C@@H]31)N2C(=O)c1ccc(Br)cc1,"inconclusive: 28.2 µM [inhibitor, single point]"
4,COc1cc(CCCN2C(=S)NC[C@@H]2c2ccccc2)cc(OC)c1OC,inactive
5,O=C(Nc1ccc2oc(-c3ccccc3)nc2c1)c1cccs1,"inconclusive: 0.794 µM [inhibitor, full curve, poor fit]"
6,Cc1ccc2[nH]c3c(c2c1)CN(C(=O)CN1CCN(Cc2ccc4c(c2)OCO4)CC1)CC3,inactive
7,CCS(=O)(=O)c1nnnn1-c1ccccc1S(C)(=O)=O,"inconclusive: 10 µM [inhibitor, single point]"
8,COc1ccccc1CNC(=S)NC1CCCCC1,"inconclusive: 28.2 µM [inhibitor, single point]"
9,Oc1c(CN2CCCCC2)cc(Br)c2cccnc12,"inconclusive: 3.16 µM [inhibitor, full curve, poor fit]"
10,CC1CCCN(CCCNC(=O)c2ccc3c(c2)N(Cc2ccccc2F)C(=O)c2ccccc2S3(=O)=O)C1 (centres undefined),"inconclusive: 31.6 µM [inhibitor, single point]"
11,O=C(NNc1ccc([N+](=O)[O-])cc1)C12CC3CC(CC(C3)C1)C2,"inconclusive: 28.2 µM [inhibitor, single point]"
12,Cc1ccccc1-c1nc(CN2CCC(C(=O)NCc3ccccc3Cl)CC2)c(C)o1,inactive
13,Cc1ccc(S(=O)(=O)N(C)CC(=O)Nc2nnc(CC(C)C)s2)cc1,"inconclusive: 8.91 µM [inhibitor, partial curve, poor fit]"
14,S=C(NNc1cccc(Cl)c1)NC1CCCCC1,"inconclusive: 28.2 µM [inhibitor, single point]"
15,COc1ccc(C(=O)NC(=S)Nc2ccc(CN3CCCCC3)cc2)cc1Cl,"inconclusive: 12.6 µM [inhibitor, single point]"
16,Cc1cc(C)nc(N/N=C/c2cc(C)n(CC(F)(F)F)c2C)n1,"inconclusive: 28.2 µM [inhibitor, single point]"
17,O=C(Nc1ccon1)c1cnc2sccn2c1=O,inactive
18,COc1ccc(Nc2oc(-c3ccc(Cl)cc3)nc2C#N)cc1,"inconclusive: 12.6 µM [inhibitor, single point]"
19,CCc1sc(C(=O)Nc2nccs2)cc1C,inactive
20,Cc1nc(-n2nc(C)c(Cc3ccccc3Cl)c2C)sc1C(=O)Nc1ccccc1F,inactive
21,COc1ccc(-c2oc(=O)c3cc(OC)c(OC)cc3c2/C=C/c2ccc(OC(C)=O)cc2)cc1,"inconclusive: 28.2 µM [inhibitor, single point]"
22,O=C1/C(=C/C=C/c2ccco2)SC(=S)N1NS(=O)(=O)c1ccccc1,"inconclusive: 10 µM [inhibitor, single point]"
23,O=C(Nc1c[nH]c(=O)[nH]c1=O)c1cc([N+](=O)[O-])cc([N+](=O)[O-])c1,inactive

row,SMILES,Potency
1,CC(C)Oc1ccc(CCc2n[nH]c(=S)n2-c2ccccc2)cc1,"inconclusive: 31.6 µM [inhibitor, single point]"
2,Clc1ccc(Oc2cnns2)cc1Cl,inactive
3,Fc1ccc(Nc2nc(NCc3ccco3)c3ccccc3n2)cc1,"inconclusive: 28.2 µM [inhibitor, single point]"
4,O=c1[nH]cc(N2CCCCCC2)c(=O)[nH]1,"inconclusive: 12.6 µM [inhibitor, single point]"
5,Cc1cc(C)c(N2C(=O)CC(Sc3ccccc3N)C2=O)c(C)c1 (centres undefined),"inconclusive: 7.94 µM [inhibitor, partial curve]"
6,c1cc(OCCCN2CCCCC2)ccc1CN1CCCCC1,"inconclusive: 2.51 µM [inhibitor, full curve]"
7,COc1ccccc1Cc1nc2ccccc2nc1SCC(=O)N(C)c1ccc(F)cc1,inactive
8,CN(C)CCCN(C(=O)c1cc(-c2cccs2)nc2ccccc12)c1nc2c(F)cccc2s1,"inconclusive: 28.2 µM [inhibitor, single point]"
9,Cc1cc(C)n(CC(O)Cn2c3ccc(Br)cc3c3cc(Br)ccc32)c(=O)n1 (centres undefined),inactive
10,CCOc1ccc(C(=O)Nc2cccc(-c3nc4cc(Cl)cc(Cl)c4o3)c2)cc1,inactive
11,O=Cc1c[nH]c2cccc(OCc3ccccc3)c12,"inconclusive: 20 µM [inhibitor, single point]"
12,CCN(CC)C(=O)Cn1c(C)c(/C=C/c2cc[n+](C)cc2)c2ccccc21,"inconclusive: 7.94 µM [inhibitor, partial curve]"
13,CC1CCCC=CC2CC(OC(=O)CN(C)C)CC2C(O)C=CC(=O)O1 (centres undefined),"inconclusive: 0.794 µM [inhibitor, full curve, poor fit]"
14,Cc1ccc([C@H]2C[C@@H](O)[C@H](n3cc(-c4ccc(F)cc4)nn3)CN2Cc2cccs2)cc1,inactive
15,CC(C)c1ccc(S(=O)(=O)c2nnn3c2nc(N2CCCCC2)c2sccc23)cc1,inactive
16,CN(C)c1ccc(/C=N/NC(=S)NCc2ccco2)cc1,"inconclusive: 28.2 µM [inhibitor, single point]"
17,Cc1cccc2nc(CSc3ccc(Cl)cc3)cn12,"inconclusive: 28.2 µM [inhibitor, single point]"
18,OC(CCc1ccncc1)c1ccccc1 (centres undefined),"inconclusive: 0.501 µM [inhibitor, full curve, poor fit]"
19,COC(CNC(=O)c1ccc2c3c(onc13)-c1ccccc1C2=O)OC,"inconclusive: 11.2 µM [inhibitor, partial curve, poor fit]"
20,Cc1ccc(NC(=O)Cn2c(=O)oc3cc(S(=O)(=O)N4CCC(C)CC4)ccc32)cc1C,"inconclusive: 3.55 µM [inhibitor, partial curve, poor fit]"
21,CCOC(=O)C1CCN(C(=O)Cn2c(=O)oc3cc(S(=O)(=O)N4CCC(C)CC4)ccc32)CC1,inactive
22,CCNc1nc(OC)nc(Oc2ccc(=O)[nH]n2)n1,inactive
23,CCOc1ccc(C(C)NC(=S)NC2CCCCC2)cc1OCC (centres undefined),"inconclusive: 28.2 µM [inhibitor, single point]"
